The supplement of paper PMC8728848
The list shows a part of the results.

Legend:
Experiment in all cases: glycan array binding signal (z-score within array); higher = stronger binding
Settings in all cases: glycan notation: IUPAC condensed, linker removed
Gal3S(b1-4)Glc = target: Gal3S(b1-4)Glc
Summary of the method: (§1)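 Arrays were curated from the Consortium for Functional Glycomics database, 3228 in total, and kept only where the protein sequence was available. Binding is expressed as a within-array Z-score. This score was averaged across arrays of the same protein sequence at different concentrations or buffers and across linkers, and negative values can be read as non-binding.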

Gal3S(b1-4)Glc6S = target: Gal3S(b1-4)Glc6S
Summary of the method: as §1

Gal3S(b1-4)GlcNAc = target: Gal3S(b1-4)GlcNAc
Summary of the method: as §1

[1] = target: Gal3S(b1-4)[Fuc(a1-3)]Glc6S
Summary of the method: as §1

[2] = target: Gal3S(b1-4)[Fuc(a1-3)]GlcNAc
Summary of the method: as §1

[3] = target: Gal3S(b1-4)[Fuc(a1-3)]GlcNAc6S
Summary of the method: as §1

Gal3S4S(b1-4)GlcNAc = target: Gal3S4S(b1-4)GlcNAc
Summary of the method: as §1

Gal3S6S(b1-4)GlcNAc = target: Gal3S6S(b1-4)GlcNAc
Summary of the method: as §1

Gal3S6S(b1-4)GlcNAc6S = target: Gal3S6S(b1-4)GlcNAc6S
Summary of the method: as §1

Gal4S(b1-4)GlcNAc = target: Gal4S(b1-4)GlcNAc
Summary of the method: as §1

Gal4S6S(b1-4)GlcNAc = target: Gal4S6S(b1-4)GlcNAc
Summary of the method: as §1

Gal6P(b1-4)GlcNAc = target: Gal6P(b1-4)GlcNAc
Summary of the method: as §1

Gal6S(b1-3)GlcNAc = target: Gal6S(b1-3)GlcNAc
Summary of the method: as §1

Gal6S(b1-3)GlcNAc6S = target: Gal6S(b1-3)GlcNAc6S
Summary of the method: as §1

Gal6S(b1-4)Glc = target: Gal6S(b1-4)Glc
Summary of the method: as §1

Gal6S(b1-4)Glc6S = target: Gal6S(b1-4)Glc6S
Summary of the method: as §1

Gal6S(b1-4)GlcNAc = target: Gal6S(b1-4)GlcNAc
Summary of the method: as §1

Gal6S(b1-4)GlcNAc6S = target: Gal6S(b1-4)GlcNAc6S
Summary of the method: as §1

GalNAc(a1-3)Gal = target: GalNAc(a1-3)Gal
Summary of the method: as §1

GalNAc(a1-3)GalNAc = target: GalNAc(a1-3)GalNAc
Summary of the method: as §1

[4] = target: GalNAc(a1-3)GalNAc(b1-3)Gal(a1-4)Gal(b1-4)Glc
Summary of the method: as §1

[5] = target: GalNAc(a1-3)GalNAc(b1-3)Gal(a1-4)Gal(b1-4)GlcNAc
Summary of the method: as §1

GalNAc(b1-3)Gal = target: GalNAc(b1-3)Gal
Summary of the method: as §1

[6] = target: GalNAc(b1-3)Gal(a1-4)Gal(b1-4)GlcNAc
Summary of the method: as §1

[7] = target: GalNAc(b1-3)Gal(a1-4)Gal(b1-4)GlcNAc(b1-3)Gal(b1-4)Glc
Summary of the method: as §1

[8] = target: GalNAc(b1-3)Gal(a1-6)Gal(b1-4)Glc
Summary of the method: as §1

GalNAc(b1-3)GalNAc = target: GalNAc(b1-3)GalNAc
Summary of the method: as §1

GalNAc(b1-3)GlcNAc = target: GalNAc(b1-3)GlcNAc
Summary of the method: as §1

GalNAc(b1-4)Gal(b1-4)Glc = target: GalNAc(b1-4)Gal(b1-4)Glc
Summary of the method: as §1

GalNAc(b1-4)GlcNAc = target: GalNAc(b1-4)GlcNAc
Summary of the method: as §1

[9] = target: GalNAc(b1-4)GlcNAc(b1-2)Man
Summary of the method: as §1

[10] = target: GalNAc(b1-4)GlcNAc(b1-2)Man(a1-3)[GalNAc(b1-4)GlcNAc(b1-2)Man(a1-6)]Man(b1-4)GlcNAc(b1-4)GlcNAc
Summary of the method: as §1

[11] = target: GalNAc(b1-4)GlcNAc(b1-3)GalNAc(b1-4)GlcNAc
Summary of the method: as §1

GalNAc(b1-4)GlcNAc6S = target: GalNAc(b1-4)GlcNAc6S
Summary of the method: as §1

GalNAc(b1-6)GalNAc = target: GalNAc(b1-6)GalNAc
Summary of the method: as §1

GalNAc3S(b1-4)GlcNAc = target: GalNAc3S(b1-4)GlcNAc
Summary of the method: as §1

GalNAc3S(b1-4)GlcNAc3S = target: GalNAc3S(b1-4)GlcNAc3S
Summary of the method: as §1

[12] = target: GalNAc3S(b1-4)[Fuc(a1-3)]GlcNAc
Summary of the method: as §1

GalNAc4S6S(b1-4)GlcNAc = target: GalNAc4S6S(b1-4)GlcNAc
Summary of the method: as §1

GalNAc6S(b1-4)GlcNAc = target: GalNAc6S(b1-4)GlcNAc
Summary of the method: as §1

Glc(a1-4)Glc = target: Glc(a1-4)Glc
Summary of the method: as §1

[13] = target: Glc(a1-4)Glc(a1-4)Glc(a1-4)Glc
Summary of the method: as §1

Glc(a1-6)Glc(a1-6)Glc = target: Glc(a1-6)Glc(a1-6)Glc
Summary of the method: as §1

[14] = target: Glc(a1-6)Glc(a1-6)Glc(a1-6)Glc
Summary of the method: as §1

Glc(b1-4)Glc = target: Glc(b1-4)Glc
Summary of the method: as §1

B1: PX14375F-bfa-539-21-539 (Bacteroides fragilis) (protein)
chain: EDFLQKDPPSSPSQSVFWQKKSDFESALAGTYSVMYSGVFSQIMPCLDGLTDNAIVQHSEGTYGWAKTIAQGDLTPNQGGFVTDIYGNCYKGIARVHILMEQLDQYTGSDISADEKKFMLAQCKALRGYFYSWLYQCYKEVPVVTQSLDLNTMYQPKATRAEVLNRVMTDYDEAISELPDKLYSDSQTSGRFTVSAVKALKARILLFDAYDSNGKAISSKMEEVLTLLQSIKGYSLAARVRDNFISEKQLASPEIMFSVRFLRPNLTHSMDLYYGAWAVLDPTRNMVDAFECTDGKPWGESPLTVRPDESILYGNDDALKKAERAKMFMNRDRRLYESVNHSMMANFVDDGFKDEEVQVNESNNKGPTGFSALKYVQPTDVTPGYSTVSDADIVVLRYAHVLLMIAEAENEAHGATTTALNAINEVRTRSGQPAIEAGISQDDLRERIRNEWRIETCFEGLRYFQLKRWKLMDKRVNGVEDPAYPGYIKVYKPAFEFFPIPQSEIDKAGGVLKQDPAYE
glycan array binding signal (z-score) (Gal3S(b1-4)Glc): 0.219
glycan array binding signal (z-score) (Gal3S(b1-4)Glc6S): -0.338
glycan array binding signal (z-score) (Gal3S(b1-4)GlcNAc): -0.507
glycan array binding signal (z-score) [1]: 0.169
glycan array binding signal (z-score) [2]: 0.75
glycan array binding signal (z-score) [3]: -0.338
glycan array binding signal (z-score) (Gal3S4S(b1-4)GlcNAc): -0.658
glycan array binding signal (z-score) (Gal3S6S(b1-4)GlcNAc): 1
glycan array binding signal (z-score) (Gal3S6S(b1-4)GlcNAc6S): 0.32
glycan array binding signal (z-score) (Gal4S(b1-4)GlcNAc): -0.679
glycan array binding signal (z-score) (Gal4S6S(b1-4)GlcNAc): 0.029
glycan array binding signal (z-score) (Gal6P(b1-4)GlcNAc): -0.412
glycan array binding signal (z-score) (Gal6S(b1-3)GlcNAc): -0.321
glycan array binding signal (z-score) (Gal6S(b1-3)GlcNAc6S): -0.049
glycan array binding signal (z-score) (Gal6S(b1-4)Glc): -0.006
glycan array binding signal (z-score) (Gal6S(b1-4)Glc6S): -0.625
glycan array binding signal (z-score) (Gal6S(b1-4)GlcNAc): -0.094
glycan array binding signal (z-score) (Gal6S(b1-4)GlcNAc6S): -0.122
glycan array binding signal (z-score) (GalNAc(a1-3)Gal): -0.352
glycan array binding signal (z-score) (GalNAc(a1-3)GalNAc): -0.028
glycan array binding signal (z-score) [4]: -0.919
glycan array binding signal (z-score) [5]: -0.701
glycan array binding signal (z-score) (GalNAc(b1-3)Gal): -0.468
glycan array binding signal (z-score) [6]: 1.15
glycan array binding signal (z-score) [7]: -0.311
glycan array binding signal (z-score) [8]: -0.82
glycan array binding signal (z-score) (GalNAc(b1-3)GalNAc): -0.19
glycan array binding signal (z-score) (GalNAc(b1-3)GlcNAc): -0.293
glycan array binding signal (z-score) (GalNAc(b1-4)Gal(b1-4)Glc): 0.504
glycan array binding signal (z-score) (GalNAc(b1-4)GlcNAc): 0.714
glycan array binding signal (z-score) [9]: -0.578
glycan array binding signal (z-score) [10]: 0.735
glycan array binding signal (z-score) [11]: 0.233
glycan array binding signal (z-score) (GalNAc(b1-4)GlcNAc6S): -0.708
glycan array binding signal (z-score) (GalNAc(b1-6)GalNAc): 0.798
glycan array binding signal (z-score) (GalNAc3S(b1-4)GlcNAc): -0.767
glycan array binding signal (z-score) (GalNAc3S(b1-4)GlcNAc3S): 0.373
glycan array binding signal (z-score) [12]: -0.582
glycan array binding signal (z-score) (GalNAc4S6S(b1-4)GlcNAc): -0.372
glycan array binding signal (z-score) (GalNAc6S(b1-4)GlcNAc): -0.468
glycan array binding signal (z-score) (Glc(a1-4)Glc): -0.438
glycan array binding signal (z-score) [13]: 0.379
glycan array binding signal (z-score) (Glc(a1-6)Glc(a1-6)Glc): -0.35
glycan array binding signal (z-score) [14]: -0.24
glycan array binding signal (z-score) (Glc(b1-4)Glc): -0.514
